In paper PMC4336329 (PLoS ONE, 2015):
About 2,200 (0.71%) of roughly 310,000 compounds showed an effect of 50% or more. Effects have a minus sign here. The list shows a part of the results.

What follows are compounds tested against human ether-à-go-go-related gene (hERG) potassium channel (human, UniProt Q12809) (assay: primary screen, population patch clamp on CHO cells stably expressing hERG).
Sequence of human ether-à-go-go-related gene (hERG) potassium channel (Q12809 whole entry, looked up): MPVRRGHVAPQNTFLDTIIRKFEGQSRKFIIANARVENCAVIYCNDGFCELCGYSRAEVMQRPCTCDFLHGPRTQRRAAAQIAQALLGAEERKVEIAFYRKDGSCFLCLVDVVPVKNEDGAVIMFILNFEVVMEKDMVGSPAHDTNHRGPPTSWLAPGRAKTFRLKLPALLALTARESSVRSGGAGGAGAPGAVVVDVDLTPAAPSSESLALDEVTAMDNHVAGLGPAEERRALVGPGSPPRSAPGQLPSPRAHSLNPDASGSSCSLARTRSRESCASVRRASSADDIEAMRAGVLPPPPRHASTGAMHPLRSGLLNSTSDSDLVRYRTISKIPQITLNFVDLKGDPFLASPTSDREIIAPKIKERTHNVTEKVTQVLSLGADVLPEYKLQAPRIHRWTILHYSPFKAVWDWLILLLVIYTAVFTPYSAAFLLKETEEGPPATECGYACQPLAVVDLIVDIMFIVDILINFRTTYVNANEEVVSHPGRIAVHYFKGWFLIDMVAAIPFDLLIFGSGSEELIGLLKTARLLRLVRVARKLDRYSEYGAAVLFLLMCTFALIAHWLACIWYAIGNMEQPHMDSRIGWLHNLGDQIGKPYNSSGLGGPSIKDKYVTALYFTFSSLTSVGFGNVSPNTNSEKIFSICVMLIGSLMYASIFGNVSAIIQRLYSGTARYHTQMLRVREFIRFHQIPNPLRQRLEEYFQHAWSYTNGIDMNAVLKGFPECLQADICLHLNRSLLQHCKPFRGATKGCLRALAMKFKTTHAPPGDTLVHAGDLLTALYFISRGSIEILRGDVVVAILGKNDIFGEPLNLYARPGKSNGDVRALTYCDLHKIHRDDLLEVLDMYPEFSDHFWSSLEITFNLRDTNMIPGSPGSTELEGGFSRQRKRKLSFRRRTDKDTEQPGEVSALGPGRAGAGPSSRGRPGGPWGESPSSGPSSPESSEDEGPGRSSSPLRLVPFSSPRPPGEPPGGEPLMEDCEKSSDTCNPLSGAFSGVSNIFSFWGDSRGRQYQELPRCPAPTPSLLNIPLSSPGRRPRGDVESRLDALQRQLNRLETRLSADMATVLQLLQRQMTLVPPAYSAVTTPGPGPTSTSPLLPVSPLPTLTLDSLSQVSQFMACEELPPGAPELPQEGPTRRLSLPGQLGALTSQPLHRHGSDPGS

SMILES | hERG current change (%, negative = inhibition) at 1uM [%]
CCCNC(=O)C1CCN(c2cc(-c3ccccc3)nc3ncnn23)CC1 | -65.6
O=C1C=C(c2ccc(-c3ccccc3)cc2)C[C@@H](c2ccc3c(c2)OCO3)C1 | -0.902
O=C1C=C(c2ccccc2)OC(=O)C1C(=O)c1ccccc1 (stereo not drawn) | 16.5
CC(C)OC(=O)c1cc2c(=O)[nH]c(C(Cl)(Cl)Cl)nc2o1 | 6.63
O=C(c1cc([N+](=O)[O-])cc([N+](=O)[O-])c1)N1CCOCC1 | 14.4
CCCC(NC(=S)NCC1CCCO1)C12CC3CC(CC(C3)C1)C2 (stereo not drawn) | 8.67
O=C(NCC1CCCO1)C1CCCN(c2ncccn2)C1 (stereo not drawn) | 19.4
O=C(O)C(=O)O.Oc1ccccc1CN1CCN(C(c2ccccc2)c2ccccc2)CC1 | 14.7
CCC(=O)Nc1nnc(C(C)(C)C)s1 | 23
CC(NC(=O)CNC(=O)c1ccccc1F)c1ccc(-n2ccnc2)cc1 (stereo not drawn) | -14.2
CCCCCCCCCCCC(=O)NC(C(=O)O)C(O)c1ccccc1 (stereo not drawn) | 8.03
O=C(Cn1c(C(F)(F)F)nc2ccccc21)N1CCCC1 | 0.741
O=C1CCCC2=C1C(c1cccc(O)c1)C1=C(N2)c2ccccc2C1=O (stereo not drawn) | 8.43
CN(C)c1nc2c(c(=O)[nH]c(=O)n2C)n1CCOc1ccccc1 | 17.1
O=C(NCc1ccco1)c1cnn2c1NC(c1ccccc1)CC2C(F)(F)F (stereo not drawn) | 1.09
O=C(CCNC(=O)c1ccc(Cl)cc1)Nc1ccc(Cl)cc1F | 11.1
CCN(CC)S(=O)(=O)c1ccc(C(=O)OCCN2C(=O)CCC2=O)cc1 | 0.401
CCOC(=O)N1CCN(C(=O)C2CCN(S(=O)(=O)c3ccc(Cl)cc3)CC2)CC1 | -22.3
O=C(O)c1cc2nc3c(c(C(F)(F)F)n2n1)CCc1ccccc1-3 | 9.66

SMILES | hERG current change (%, negative = inhibition) at 1uM [%]
CCOC(=O)c1sc(NC(=O)C(CC)Sc2nccn2C)nc1C (stereo not drawn) | 6.94
Cc1ccc(-c2nnn(CC(=O)N(CCN3CCOCC3)C(C(=O)NC3CCCC3)c3ccncc3)n2)o1 (stereo not drawn) | 0.175
O=C(CSc1nncs1)NC(=O)NCc1ccco1 | 16.8
CCOC(=O)C1=C(c2ccccc2)N=C2SCC(=O)N2C1c1ccc(OCC)c(OCC)c1 (stereo not drawn) | 9.14
COc1ccccc1C(=O)Nc1ccnn1C1CCN(Cc2cnn(C)c2)CC1 | -27
O=C(c1cn(Cc2ccccc2)nc1-c1cccnc1)N1CCN(Cc2ccccc2)CC1 | -2.3
O=C(CN1CCC(NC(=O)c2ccccc2F)CC1)NCc1ccc(F)cc1 | -5.88
COc1ccc(C(C)=O)cc1COC(=O)Cc1n[nH]c(=O)c2ccccc12 | -2.68
O=[N+]([O-])c1cccc(C(O)C23CN4CN(CN(C4)C2)C3)c1 (stereo not drawn) | 7.23
Cc1ccccc1CC(=O)N1CCN(S(=O)(=O)c2cccs2)CC1 | 8.12
COc1ccc(NC(=O)C(NC(=O)c2ccccc2)C(C)C)cc1 (stereo not drawn) | 1.26
CC(NC(=O)COc1ccccc1F)C1CC2CCC1C2 (stereo not drawn) | 17.5
CC(=O)NCCc1nc2ccccc2n1CCOc1ccc(C)cc1 | 0.792
COc1ccc(NS(=O)(=O)c2ccc(N3C(=O)CCC3=O)cc2)cc1 | 10.2
COc1ccc(CN(C(=O)c2snc(C(N)=O)c2N)C(C)C(=O)NCc2ccc(F)cc2)cc1 (stereo not drawn) | -7.36
Cc1ccn(C(CC(=O)c2ccc(Br)cc2)C(=O)O)n1 (stereo not drawn) | 4.04
Cc1c(NS(=O)(=O)c2cccs2)c(=O)n(-c2ccccc2)n1C | 8.31
COc1ccccc1N1C(=O)CC(Sc2ncccc2C(=O)O)C1=O (stereo not drawn) | 7.98
CCOC(=O)C1CCN(C(=O)Cc2c(C(=O)O)[nH]c3ccccc23)CC1 | 5.01

SMILES | hERG current change (%, negative = inhibition) at 1uM [%]
C=CCc1ccc(OCCOCCOc2cccc3cccnc23)c(OC)c1 | 10.7
CCN1CCN(c2nc(-c3ccccc3)nc3ccccc23)CC1 | -30.4
CCCN(CCC)CCNC(=O)c1cc2c(=O)n(CC)c3ccccc3c2s1 | 8.38
CCN1CCN(CCNC(=O)C2CCN(Cc3nc(-c4ccc(Cl)cc4)oc3C)CC2)CC1 | 7.22
Cc1cc(C)n(-c2nc3c(c(=O)[nH]c(=O)n3C)n2CCc2ccccc2)n1 | -0.649
COC(=O)c1cc(-c2cccs2)nc2ccccc12 | 7.7
CC(C)C(=O)Nc1ccc(C(=O)NNC(=O)c2ccco2)cc1 | 7.82
CC(=O)c1cccc(N/C=C\C(=O)c2ccc(C)cc2)c1 | 15.2
COc1ccc(-n2c(Cn3c(=O)sc4ccccc43)nnc2SCC(N)=O)cc1 | 10.9
COc1cc(/C=C(\NC(C)=O)C(=O)O)cc(OC)c1OC | 11.3
COc1ccccc1N1CCN(C(=O)C2CCN(S(=O)(=O)c3ccc4c(c3)CC(C)N4C(C)=O)CC2)CC1 (stereo not drawn) | 12.9
CCOc1ccc2ccccc2c1/C=N/NC(=O)c1cc(C)[nH]n1 | 11.4
O=C(O)c1ccccc1OCCOc1ccccc1C(=O)O | 20.4
S=C(NCCc1ccccc1)N1CCN(C2CCCCC2)CC1 | -8.38
COC(=O)c1sc2ncn(-n3c(C)ccc3C)c(=O)c2c1C | 16
O=C1c2ccccc2C(=O)N1CCCCCCc1ccccc1 | 11.4
Cc1cc(C)nc(NS(=O)(=O)c2ccc(NC(=O)Cc3ccccc3F)cc2)n1 | 17.8
Cc1cccc(C)c1NC(=O)Nc1cccs1 | 13.7
O=C(CN(Cc1ccccc1)S(=O)(=O)c1ccc2c(c1)OCCO2)N/N=C/c1ccc(F)cc1 | 2.99
